In PubChem BioAssay AID588795 (National Center for Advancing Translational Sciences (NCATS), 2011):
Out of some 390,000 compounds screened, about 1,400 (0.36%) were called active. Inconclusive means that the source gave no clear call. Such entries were picked first, then a sample of the others. Calls follow the shape of the dose curve; as a rule, active = well fitted inhibition curve with a large enough effect; inconclusive = small, poorly fitted or top-dose-only effect; inactive = no such curve, though single readings can be large or run the other way. A potency beside an inconclusive call is a rough fit, not a confirmed value.

molecular target: Flap endonuclease 1 (Homo sapiens) (UniProt P39748); test: qHTS Assay for the Inhibitors of Human Flap endonuclease 1 (FEN1).; also: nearly all actives have a fitted effect of over 65% in size; conditions: Recombinant FEN1 flap cleavage, fluorescence, 15 min; series mostly up to 114 µM
Sequence of UniProt P39748 (P39748 whole entry, looked up): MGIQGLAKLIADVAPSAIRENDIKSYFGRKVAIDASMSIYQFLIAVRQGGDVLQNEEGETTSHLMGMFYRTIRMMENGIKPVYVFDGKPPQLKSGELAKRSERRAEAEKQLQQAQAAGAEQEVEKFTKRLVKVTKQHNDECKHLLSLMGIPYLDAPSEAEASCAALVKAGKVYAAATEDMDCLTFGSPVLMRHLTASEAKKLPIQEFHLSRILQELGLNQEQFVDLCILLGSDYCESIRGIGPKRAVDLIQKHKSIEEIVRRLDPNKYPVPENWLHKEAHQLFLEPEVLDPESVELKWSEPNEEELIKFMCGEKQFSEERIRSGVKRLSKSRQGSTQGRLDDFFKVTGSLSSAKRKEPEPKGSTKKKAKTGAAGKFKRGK
How it was run: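 Potency values derive from four-parameter Hill fits of normalized qHTS data. The reaction used 10 nM FEN1 preincubated 15 min at room temperature with compound, then 50 nM DNA substrate, read at 0 and 15 min.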
Potency is read from the fitted curve at half-maximal effect; tags tell the direction and shape of the fitted curve.

Question: With COc1ccccc1C(=O)N/C(=C/c1ccco1)C(=O)Nc1cccc(C(=O)O)c1 as the molecule, how does the Potency read?
Answer: Its Potency is inconclusive: 79.4 µM [inhibitor, partial curve, poor fit].

Question: How did the Potency turn out when O=C(O)Cc1ccc(-n2cccc2)cc1 was run?
Answer: Its Potency is inconclusive: 79.4 µM [inhibitor, partial curve, poor fit].

Question: Which Potency does the source give for O=C1CNC(=O)/C1=C/c1ccc(O)cc1 here?
Answer: Its Potency is “inactive”.

Question: Cn1c(=O)c2c(SCc3cccnc3)nc(CC(C)(C)C)nc2n(C)c1=O was tested. Which Potency did it give?
Answer: The Potency was inconclusive: 15.8 µM [inhibitor, full curve].

Question: For Cc1nc(NC(=O)c2ccccc2)sc1C1(C)CC(c2ccccc2F)=NO1 (stereo not given), which Potency is on record?
Answer: The Potency was inconclusive: 79.4 µM [inhibitor, partial curve, poor fit].

Question: With CNc1cc(C)c(C#N)c2nc3ccccc3n12 as the molecule, how does the Potency read?
Answer: The Potency was inconclusive: 31.6 µM [inhibitor, partial curve, poor fit].

Question: CC(O)CN=c1cc(-c2ccccc2)oc2ccc(Cl)cc12 (stereo not given) was tested. Which Potency did it give?
Answer: Its Potency is inconclusive: 44.7 µM [inhibitor, partial curve].

Question: CC(C)CCNC(=O)c1onc(CSc2ccccc2)c1C(=O)NCCC(C)C was tested. Which Potency did it give?
Answer: The Potency was inconclusive: 50.1 µM [inhibitor, partial curve, poor fit].

Question: With O=C(Nc1ccncc1)c1ccc([N+](=O)[O-])cc1Cl as the molecule, how does the Potency read?
Answer: Its Potency is inconclusive: 22.4 µM [inhibitor, partial curve, poor fit].

Question: COc1cc2c(c(OC)c1OC)C(c1ccc3c(c1)OCO3)CC(=O)O2 (stereo not given) was tested. Which Potency did it give?
Answer: The Potency was inconclusive: 89.1 µM [inhibitor, partial curve, poor fit].

Question: How did the Potency turn out when Cc1ccc(S(=O)(=O)c2nc(-c3cccs3)oc2N2CCC(C)CC2)cc1 was run?
Answer: Its Potency is inconclusive: 79.4 µM [inhibitor, single point].

Question: Which Potency does the source give for Cc1cccc(N2CCn3c2nc2c3c(=O)n(CCCc3ccccc3)c(=O)n2C)c1 here?
Answer: Its Potency is “inactive”.

Question: Which Potency does the source give for O=S(=O)(Cc1cc(NCc2ccccc2)nc(-c2ccccn2)n1)c1ccccc1 here?
Answer: Its Potency is “inactive”.

Question: With COc1cc2c(C(=O)N3CCN(c4ccccc4C)CC3)c(C)oc2cc1Br as the molecule, how does the Potency read?
Answer: The Potency was inconclusive: 89.1 µM [inhibitor, single point].

Question: With CCn1c(=O)c([N+](=O)[O-])c(Cl)c2ccccc21 as the molecule, how does the Potency read?
Answer: The Potency was inconclusive: 50.1 µM [inhibitor, partial curve].

Question: With Cc1cccc2cc3c(N)c(C#N)sc3nc12 as the molecule, how does the Potency read?
Answer: The Potency was inconclusive: 20 µM [inhibitor, partial curve, poor fit].

Question: With COc1ccc(Cc2nc3ccccc3n2CC(=O)N/N=C/c2ccc(C)cc2O)cc1OC as the molecule, how does the Potency read?
Answer: Its Potency is inconclusive: 31.6 µM [inhibitor, partial curve, poor fit].

Question: Which Potency does the source give for COc1ccc(C(C(=O)NC2CCCC2)N(C(=O)c2snc(C(N)=O)c2N)c2cccc(O)c2)cc1 (stereo not given) here?
Answer: Its Potency is inconclusive: 56.2 µM [inhibitor, partial curve, poor fit].

Question: For Cc1cc(NC(=O)c2ccc(C#N)cc2)on1, which Potency is on record?
Answer: The Potency was “inactive”.

Question: COC(=O)c1ccc2c(=O)[nH]c(COC(=O)c3[nH]c(C)c(C(C)=O)c3C)nc2c1 was tested. Which Potency did it give?
Answer: The Potency was inconclusive: 14.1 µM [inhibitor, full curve].

Question: For CN(C)CCNc1ccc(CO)c2oc3ccc(O)cc3c(=O)c12, which Potency is on record?
Answer: Its Potency is active: 35.5 µM.

Question: With CCOc1ccc2nc(NC3=NC(C)(C)C=C(C)N3)nc(C)c2c1 as the molecule, how does the Potency read?
Answer: Its Potency is active: 39.8 µM.

Question: How did the Potency turn out when COc1ccc(C2c3ccc4ccccc4c3Oc3ncn(CCO)c(=N)c32)cc1OC (stereo not given) was run?
Answer: The Potency was inconclusive: 39.8 µM [inhibitor, partial curve].

Question: How did the Potency turn out when Cc1nn(Cc2ccccc2)c(C)c1/C=N/NC(=O)CNc1cccc(C(F)(F)F)c1 was run?
Answer: The Potency was inconclusive: 14.1 µM [inhibitor, partial curve, poor fit].

Question: How did the Potency turn out when CCCCNS(=O)(=O)c1ccc2nc(SCC(=O)c3ccc(C#N)cc3)[nH]c2c1 was run?
Answer: Its Potency is inconclusive: 89.1 µM [inhibitor, partial curve, poor fit].

Question: With CN1CCS/C1=C/C=C1/SC(=S)N(Cc2ccccc2)C1=O as the molecule, how does the Potency read?
Answer: Its Potency is inconclusive: 89.1 µM [inhibitor, partial curve, poor fit].

Question: Which Potency does the source give for COc1ccc(-c2[nH]ncc2/C=N/NC(=O)c2cccc([N+](=O)[O-])c2)cc1OC here?
Answer: The Potency was inconclusive: 44.7 µM [inhibitor, partial curve].

Question: For O=C(Nc1ccc(OC(F)(F)F)cc1)N1CCN(c2ccnc3cc(Cl)ccc23)CC1, which Potency is on record?
Answer: Its Potency is inconclusive: 22.4 µM [inhibitor, partial curve, poor fit].

Question: How did the Potency turn out when CCOc1ccc(NC2c3ccccc3C(=O)N2Cc2ccc3c(c2)OCO3)cc1 (stereo not given) was run?
Answer: The Potency was inconclusive: 35.5 µM [inhibitor, partial curve, poor fit].

Question: Which Potency does the source give for O=C(c1ccc2ccccc2c1)N1CCN(Cc2ccccc2)CC1 here?
Answer: The Potency was inconclusive: 89.1 µM [inhibitor, single point].

Question: For CCOc1ccc(NC(=O)Nc2ccc3c(c2)CCC3)cc1, which Potency is on record?
Answer: The Potency was “inactive”.

Question: How did the Potency turn out when Cc1cc(N2CCCC2)ccc1/C=C1\NC(=S)N(C)C1=O was run?
Answer: The Potency was inconclusive: 79.4 µM [inhibitor, partial curve, poor fit].

Question: For COc1ccc(-n2c(C)cc(/C=C/c3nc(O)c([N+](=O)[O-])c(=O)[nH]3)c2C)cc1, which Potency is on record?
Answer: Its Potency is inconclusive: 31.6 µM [inhibitor, partial curve, poor fit].

Question: How did the Potency turn out when CCOc1cc(/C=C2/C(=N)N3OC(C)=CC3=NC2=O)ccc1OC(=O)c1ccco1 was run?
Answer: Its Potency is “inactive”.

Question: C=CCOc1ccc(/C=N/NC(=O)c2cc3c(OC)cc(OC)cc3[nH]2)cc1 was tested. Which Potency did it give?
Answer: Its Potency is inconclusive: 28.2 µM [inhibitor, partial curve, poor fit].

Question: For COc1ccc(N2CCN(CC(O)COc3ccccc3C(C)(C)C)CC2)cc1 (stereo not given), which Potency is on record?
Answer: Its Potency is inconclusive: 35.5 µM [inhibitor, partial curve, poor fit].

Question: How did the Potency turn out when CCN(c1ccc(OC)cc1)S(=O)(=O)c1c(C(=O)N2CCCCCC2)c(C)n(C)c1C was run?
Answer: Its Potency is “inactive”.

Question: For C[C@]12c3[nH]c4ccc(Cl)cc4c3CCN1C(=O)[C@@H](CC(=O)NCc1ccco1)C[C@@H]2C(=O)N1CCCCC1, which Potency is on record?
Answer: Its Potency is inconclusive: 89.1 µM [inhibitor, partial curve, poor fit].

Question: COc1ccccc1CNC(=O)c1cn(C)c2ccc(S(=O)(=O)N3CCC(C)CC3)cc2c1=O was tested. Which Potency did it give?
Answer: Its Potency is “inactive”.

Question: With C#CCOCCOCCOCCNc1nc(N2CCN(C(=O)CCCCCCCCCCNC(=O)[C@H]([C@@H](C)CC)n3cc(CCCCCN)nn3)CC2)nc(N2CCN(C(=O)CCCCCCCCCCNC(=O)[C@H](CCCCN)n3cc(CCCC(=O)O)nn3)CC2)n1 as the molecule, how does the Potency read?
Answer: Its Potency is inconclusive: 89.1 µM [inhibitor, single point].

Question: For CN(CCO)c1ccc(C=NNc2ccc([N+](=O)[O-])cc2S(=O)(=O)Nc2ccccc2C(=O)O)cc1, which Potency is on record?
Answer: Its Potency is active: 79.4 µM.

Question: How did the Potency turn out when COc1ccc(C2C(C(C)=O)=C(O)C(=O)N2Cc2ccccc2)c(OC)c1 (stereo not given) was run?
Answer: Its Potency is inconclusive: 70.8 µM [inhibitor, single point].

Question: With CC(C)(C)c1cc(CCC(=O)N2CCCC2)cc(C(C)(C)C)c1O as the molecule, how does the Potency read?
Answer: The Potency was “inactive”.

Question: With COc1cc2nc(N(C)C)nc(NC3CCN(C)CC3)c2cc1OC as the molecule, how does the Potency read?
Answer: The Potency was active: 28.2 µM.

Question: With COc1ccc(CN2CC[C@H]3C=CC[C@@H](C(=O)NCc4cccnc4)[C@H]3C2=O)cc1OC as the molecule, how does the Potency read?
Answer: The Potency was inconclusive: 89.1 µM [inhibitor, partial curve].

Question: For Cc1cc(OCC(=O)Nc2ccc(N3CCCC3)cc2)cc(C)c1Cl, which Potency is on record?
Answer: The Potency was inconclusive: 56.2 µM [inhibitor, partial curve, poor fit].

Question: For Cc1cc(C)c2nc(-c3ccco3)cc(C(=O)O)c2c1, which Potency is on record?
Answer: Its Potency is inconclusive: 44.7 µM [inhibitor, partial curve].

Question: COC(=O)CCCCCN1C(=O)/C(=C\c2ccncc2)SC1=S was tested. Which Potency did it give?
Answer: The Potency was inconclusive: 89.1 µM [inhibitor, partial curve, poor fit].

Question: C=CCn1c(O)c(N=NC(=O)CNC(=O)/C=C/c2ccco2)c2ccccc21 was tested. Which Potency did it give?
Answer: Its Potency is inconclusive: 56.2 µM [inhibitor, partial curve, poor fit].

Question: How did the Potency turn out when O=C1/C(=C\c2cc([N+](=O)[O-])ccc2O)SC(=S)N1Cc1ccc(Cl)cc1 was run?
Answer: Its Potency is active: 22.4 µM.

Question: Which Potency does the source give for Clc1nccc2c1ccc1ccccc12 here?
Answer: Its Potency is inconclusive: 10.6 µM [inhibitor, partial curve].

Question: For Cc1cc(C)cc(NC(=O)CSCn2nnc3c(=O)[nH]c(Cc4ccc(F)cc4)nc32)c1, which Potency is on record?
Answer: Its Potency is inconclusive: 89.1 µM [inhibitor, partial curve, poor fit].

Question: COc1ccc(OC)c2c(/C=C/c3ccc(N(C)C)cc3)ccnc12 was tested. Which Potency did it give?
Answer: Its Potency is inconclusive: 17.8 µM [inhibitor, partial curve, poor fit].

Question: Which Potency does the source give for CN1CCc2c(sc(/N=C/c3c[nH]c4ccccc34)c2C#N)C1 here?
Answer: Its Potency is inconclusive: 35.5 µM [inhibitor, full curve].

Question: Which Potency does the source give for COc1cc(Cl)c(C)cc1NC(=O)CSc1cc(=O)n(C)c2cc(Cl)ccc12 here?
Answer: Its Potency is inconclusive: 89.1 µM [inhibitor, single point].

Question: Which Potency does the source give for Cc1ccc(N/C(N)=N/c2nc(C)cc(C)n2)cc1 here?
Answer: Its Potency is inconclusive: 79.4 µM [inhibitor, partial curve, poor fit].

Question: How did the Potency turn out when COc1ccccc1C(=O)NCC(=O)N/N=C/c1cc(Br)ccc1OC(=O)/C=C\c1ccco1 was run?
Answer: The Potency was inconclusive: 12.6 µM [inhibitor, partial curve, poor fit].

Question: For O=C(O)c1ccc(-n2cccc2/C=N\NC(=O)c2cc3cc(Br)ccc3o2)cc1, which Potency is on record?
Answer: Its Potency is inconclusive: 56.2 µM [inhibitor, partial curve, poor fit].

Question: With COc1ccc(Cn2c(=O)[nH]c3cc(C(=O)Nc4ccc(N5CCN(C)CC5)cc4)ccc32)cc1 as the molecule, how does the Potency read?
Answer: The Potency was inconclusive: 56.2 µM [inhibitor, partial curve, poor fit].

Question: CCOc1ccc(/C=C/c2ccc3ccccc3[n+]2C)cc1OCC was tested. Which Potency did it give?
Answer: The Potency was inconclusive: 50.1 µM [inhibitor, partial curve].
